# Results: the antibiotic and cytotoxicity screens of Wong et al. (2023)
# The list shows a part of the results.
# Tests used:
# HSkMC = human skeletal muscle cells; test: cytotoxicity call (relative viability < 0.9); conditions: 10 µM
# HepG2 = test: cytotoxicity call (relative viability < 0.9); conditions: 10 µM
# S. aureus RN4220 = test: growth inhibition call (relative growth <= 0.2); conditions: 50 µM
SMILES,cytotoxicity call (HSkMC),cytotoxicity call (HepG2),growth inhibition call (S. aureus RN4220)
COc1ccccc1NC(=O)C1=C(C)N=C(SCC(=O)Nc2ccccc2[N+](=O)[O-])C(C#N)[C@@H]1c1ccccc1F (some centres not stated),inactive,inactive,inactive
Cc1ccc(S(=O)(=O)Nc2ccc3c(c2)C(=O)N([C@H](C)CO)C[C@@H](C)[C@H](CN(C)C(=O)Nc2ccc(F)cc2)OCCCC[C@@H](C)O3)cc1,active,active,inactive
Clc1ccc(CCC(Cn2ccnc2)Sc2c(Cl)cccc2Cl)cc1 (configuration not stated),inactive,inactive,inactive
CN1CC2(CCNCC2)OC1=O,inactive,inactive,inactive
